# Experimental data: the supplement of paper PMC8728848
# This is one part of the list.
# B1: BTL (Bryothamnion triquetrum) (protein)
# chain: ADPICGSSGYSCTTPAILTPKSPGSFPSGYSKVIVTGVGGSYSVYIHRPDGFKVYKASEGGCASFGSYSGGGNSEVGKYGSGGTVVAVACK
# Columns and labels:
# Experiment in all cases: glycan array binding signal (z-score within array); higher = stronger binding
# Details in all cases: glycan notation: IUPAC condensed, linker removed
# Gal(a1-6)Glc = target: Gal(a1-6)Glc
# Method in brief: (§1)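 From the Consortium for Functional Glycomics database, 3228 arrays were curated, keeping only those whose protein sequence was available. Binding is given as a within-array Z-score averaged across arrays sharing a protein sequence and across linkers. Negative Z-scores can be read as non-binding.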
# Gal(b1-2)Gal = target: Gal(b1-2)Gal
# Method in brief: as §1
# Gal(b1-3)Gal = target: Gal(b1-3)Gal
# Method in brief: as §1
# Gal(b1-3)Gal(b1-4)GlcNAc = target: Gal(b1-3)Gal(b1-4)GlcNAc
# Method in brief: as §1
# Gal(b1-3)GalNAc = target: Gal(b1-3)GalNAc
# Method in brief: as §1
# [1] = target: Gal(b1-3)GalNAc(a1-3)[Fuc(a1-2)]Gal(b1-4)Glc
# Method in brief: as §1
# [2] = target: Gal(b1-3)GalNAc(a1-3)[Fuc(a1-2)]Gal(b1-4)GlcNAc
# Method in brief: as §1
# Gal(b1-3)GalNAc(b1-3)Gal = target: Gal(b1-3)GalNAc(b1-3)Gal
# Method in brief: as §1
# [3] = target: Gal(b1-3)GalNAc(b1-3)Gal(a1-4)Gal(b1-4)Glc
# Method in brief: as §1
# [4] = target: Gal(b1-3)GalNAc(b1-4)Gal(b1-4)Glc
# Method in brief: as §1
# [5] = target: Gal(b1-3)GalNAc(b1-4)[Neu5Ac(a2-3)]Gal(b1-4)Glc
# Method in brief: as §1
# Gal(b1-3)GlcNAc = target: Gal(b1-3)GlcNAc
# Method in brief: as §1
# [6] = target: Gal(b1-3)GlcNAc(a1-3)Gal(b1-4)GlcNAc
# Method in brief: as §1
# [7] = target: Gal(b1-3)GlcNAc(a1-6)Gal(b1-4)GlcNAc
# Method in brief: as §1
# Gal(b1-3)GlcNAc(b1-2)Man = target: Gal(b1-3)GlcNAc(b1-2)Man
# Method in brief: as §1
# [8] = target: Gal(b1-3)GlcNAc(b1-2)Man(a1-3)[Gal(b1-3)GlcNAc(b1-2)Man(a1-6)]Man(b1-4)GlcNAc(b1-4)GlcNAc
# Method in brief: as §1
# [9] = target: Gal(b1-3)GlcNAc(b1-2)Man(a1-3)[Gal(b1-3)GlcNAc(b1-2)Man(a1-6)]Man(b1-4)GlcNAc(b1-4)[Fuc(a1-6)]GlcNAc
# Method in brief: as §1
# [10] = target: Gal(b1-3)GlcNAc(b1-2)Man(a1-3)[GlcNAc(b1-4)][Gal(b1-3)GlcNAc(b1-2)Man(a1-6)]Man(b1-4)GlcNAc(b1-4)GlcNAc
# Method in brief: as §1
# [11] = target: Gal(b1-3)GlcNAc(b1-2)[Gal(b1-3)GlcNAc(b1-6)]Man(a1-6)[Gal(b1-3)GlcNAc(b1-2)Man(a1-3)]Man(b1-4)GlcNAc(b1-4)GlcNAc
# Method in brief: as §1
# [12] = target: Gal(b1-3)GlcNAc(b1-3)Gal(b1-3)GlcNAc
# Method in brief: as §1
# [13] = target: Gal(b1-3)GlcNAc(b1-3)Gal(b1-4)Glc
# Method in brief: as §1
# [14] = target: Gal(b1-3)GlcNAc(b1-3)Gal(b1-4)GlcNAc
# Method in brief: as §1
# [15] = target: Gal(b1-3)GlcNAc(b1-3)Gal(b1-4)GlcNAc(b1-2)Man(a1-3)[Gal(b1-3)GlcNAc(b1-3)Gal(b1-4)GlcNAc(b1-2)Man(a1-6)]Man(b1-4)GlcNAc(b1-4)GlcNAc
# Method in brief: as §1
# [16] = target: Gal(b1-3)GlcNAc(b1-3)Gal(b1-4)GlcNAc(b1-2)[Gal(b1-3)GlcNAc(b1-3)Gal(b1-4)GlcNAc(b1-6)]Man(a1-6)[Gal(b1-3)GlcNAc(b1-3)Gal(b1-4)GlcNAc(b1-2)Man(a1-3)]Man(b1-4)GlcNAc(b1-4)[Fuc(a1-6)]GlcNAc
# Method in brief: as §1
# [17] = target: Gal(b1-3)GlcNAc(b1-3)Gal(b1-4)GlcNAc(b1-3)Gal(b1-4)GlcNAc(b1-2)[Gal(b1-3)GlcNAc(b1-3)Gal(b1-4)GlcNAc(b1-3)Gal(b1-4)GlcNAc(b1-6)]Man(a1-6)[Gal(b1-3)GlcNAc(b1-3)Gal(b1-4)GlcNAc(b1-3)Gal(b1-4)GlcNAc(b1-2)Man(a1-3)]Man(b1-4)GlcNAc(b1-4)[Fuc(a1-6)]GlcNAc
# Method in brief: as §1
# [18] = target: Gal(b1-3)GlcNAc(b1-3)Gal(b1-4)GlcNAc(b1-6)[Gal(b1-3)GlcNAc(b1-3)]Gal(b1-4)Glc
# Method in brief: as §1
# [19] = target: Gal(b1-3)GlcNAc(b1-3)Gal(b1-4)[Fuc(a1-3)]GlcNAc
# Method in brief: as §1
# [20] = target: Gal(b1-3)GlcNAc(b1-3)Gal(b1-4)[Fuc(a1-3)]GlcNAc(b1-6)[Gal(b1-3)GlcNAc(b1-3)]Gal(b1-4)Glc
# Method in brief: as §1
# [21] = target: Gal(b1-3)GlcNAc(b1-3)GalNAc
# Method in brief: as §1
# [22] = target: Gal(b1-3)GlcNAc(b1-6)Gal(b1-4)GlcNAc
# Method in brief: as §1
# [23] = target: Gal(b1-3)GlcNAc(b1-6)GalNAc
# Method in brief: as §1
# [24] = target: Gal(b1-3)GlcNAc(b1-6)[Gal(b1-3)]GalNAc
# Method in brief: as §1
# Gal(b1-3)GlcNAc6S = target: Gal(b1-3)GlcNAc6S
# Method in brief: as §1
# [25] = target: Gal(b1-3)[Fuc(a1-4)]GlcNAc
# Method in brief: as §1
# [26] = target: Gal(b1-3)[Fuc(a1-4)]GlcNAc(b1-2)Man
# Method in brief: as §1
# [27] = target: Gal(b1-3)[Fuc(a1-4)]GlcNAc(b1-2)Man(a1-3)[Gal(b1-3)[Fuc(a1-4)]GlcNAc(b1-2)Man(a1-6)]Man(b1-4)GlcNAc(b1-4)[Fuc(a1-6)]GlcNAc
# Method in brief: as §1
# [28] = target: Gal(b1-3)[Fuc(a1-4)]GlcNAc(b1-3)Gal(b1-3)[Fuc(a1-4)]GlcNAc
# Method in brief: as §1
# [29] = target: Gal(b1-3)[Fuc(a1-4)]GlcNAc(b1-3)Gal(b1-4)[Fuc(a1-3)]GlcNAc
# Method in brief: as §1
# [30] = target: Gal(b1-3)[Fuc(a1-4)]GlcNAc(b1-6)GalNAc
# Method in brief: as §1
# [31] = target: Gal(b1-3)[GlcNAc(b1-6)]GalNAc
# Method in brief: as §1
# [32] = target: Gal(b1-3)[Neu5Ac(a2-6)]GalNAc
# Method in brief: as §1
# [33] = target: Gal(b1-3)[Neu5Ac(a2-6)]GlcNAc(b1-4)Gal(b1-4)Glc
# Method in brief: as §1
# [34] = target: Gal(b1-3)[Neu5Ac(b2-6)]GalNAc
# Method in brief: as §1
# Gal(b1-4)Gal = target: Gal(b1-4)Gal
# Method in brief: as §1
# [35] = target: Gal(b1-4)GalNAc(a1-3)[Fuc(a1-2)]Gal(b1-4)GlcNAc
# Method in brief: as §1
binder,measurement,setting,value
B1,glycan array binding signal (z-score),Gal(a1-6)Glc,-0.287
same,glycan array binding signal (z-score),Gal(b1-2)Gal,-0.232
same,glycan array binding signal (z-score),Gal(b1-3)Gal,-0.189
same,glycan array binding signal (z-score),Gal(b1-3)Gal(b1-4)GlcNAc,-0.234
same,glycan array binding signal (z-score),Gal(b1-3)GalNAc,-0.199
same,glycan array binding signal (z-score),[1],-0.293
same,glycan array binding signal (z-score),[2],-0.201
same,glycan array binding signal (z-score),Gal(b1-3)GalNAc(b1-3)Gal,-0.22
same,glycan array binding signal (z-score),[3],-0.148
same,glycan array binding signal (z-score),[4],-0.226
same,glycan array binding signal (z-score),[5],-0.219
same,glycan array binding signal (z-score),Gal(b1-3)GlcNAc,-0.227
same,glycan array binding signal (z-score),[6],-0.2
same,glycan array binding signal (z-score),[7],-0.216
same,glycan array binding signal (z-score),Gal(b1-3)GlcNAc(b1-2)Man,-0.208
same,glycan array binding signal (z-score),[8],-0.154
same,glycan array binding signal (z-score),[9],4.76
same,glycan array binding signal (z-score),[10],-0.109
same,glycan array binding signal (z-score),[11],-0.183
same,glycan array binding signal (z-score),[12],-0.239
same,glycan array binding signal (z-score),[13],-0.205
same,glycan array binding signal (z-score),[14],-0.201
same,glycan array binding signal (z-score),[15],-0.189
same,glycan array binding signal (z-score),[16],0.07
same,glycan array binding signal (z-score),[17],2.33
same,glycan array binding signal (z-score),[18],-0.165
same,glycan array binding signal (z-score),[19],-0.256
same,glycan array binding signal (z-score),[20],-0.267
same,glycan array binding signal (z-score),[21],-0.247
same,glycan array binding signal (z-score),[22],-0.19
same,glycan array binding signal (z-score),[23],-0.194
same,glycan array binding signal (z-score),[24],-0.214
same,glycan array binding signal (z-score),Gal(b1-3)GlcNAc6S,-0.286
same,glycan array binding signal (z-score),[25],-0.271
same,glycan array binding signal (z-score),[26],-0.111
same,glycan array binding signal (z-score),[27],1.84
same,glycan array binding signal (z-score),[28],-0.201
same,glycan array binding signal (z-score),[29],-0.268
same,glycan array binding signal (z-score),[30],-0.152
same,glycan array binding signal (z-score),[31],-0.182
same,glycan array binding signal (z-score),[32],-0.205
same,glycan array binding signal (z-score),[33],-0.188
same,glycan array binding signal (z-score),[34],-0.189
same,glycan array binding signal (z-score),Gal(b1-4)Gal,-0.185
same,glycan array binding signal (z-score),[35],-0.276
